Assay results published in article PMC4336329 (PLoS ONE, 2015).
Screen size: about 310,000 compounds; about 14,000 (4.5%) showed an effect of 50% or more. Effects have a minus sign here. The list shows a part of the results.

target: human ether-à-go-go-related gene (hERG) potassium channel (human, UniProt Q12809); assay: primary screen, population patch clamp on CHO cells stably expressing hERG
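Note: peak tail current of the secondary pulse compared with the same well before compound.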

Sequence of human ether-à-go-go-related gene (hERG) potassium channel (Q12809 whole entry, looked up): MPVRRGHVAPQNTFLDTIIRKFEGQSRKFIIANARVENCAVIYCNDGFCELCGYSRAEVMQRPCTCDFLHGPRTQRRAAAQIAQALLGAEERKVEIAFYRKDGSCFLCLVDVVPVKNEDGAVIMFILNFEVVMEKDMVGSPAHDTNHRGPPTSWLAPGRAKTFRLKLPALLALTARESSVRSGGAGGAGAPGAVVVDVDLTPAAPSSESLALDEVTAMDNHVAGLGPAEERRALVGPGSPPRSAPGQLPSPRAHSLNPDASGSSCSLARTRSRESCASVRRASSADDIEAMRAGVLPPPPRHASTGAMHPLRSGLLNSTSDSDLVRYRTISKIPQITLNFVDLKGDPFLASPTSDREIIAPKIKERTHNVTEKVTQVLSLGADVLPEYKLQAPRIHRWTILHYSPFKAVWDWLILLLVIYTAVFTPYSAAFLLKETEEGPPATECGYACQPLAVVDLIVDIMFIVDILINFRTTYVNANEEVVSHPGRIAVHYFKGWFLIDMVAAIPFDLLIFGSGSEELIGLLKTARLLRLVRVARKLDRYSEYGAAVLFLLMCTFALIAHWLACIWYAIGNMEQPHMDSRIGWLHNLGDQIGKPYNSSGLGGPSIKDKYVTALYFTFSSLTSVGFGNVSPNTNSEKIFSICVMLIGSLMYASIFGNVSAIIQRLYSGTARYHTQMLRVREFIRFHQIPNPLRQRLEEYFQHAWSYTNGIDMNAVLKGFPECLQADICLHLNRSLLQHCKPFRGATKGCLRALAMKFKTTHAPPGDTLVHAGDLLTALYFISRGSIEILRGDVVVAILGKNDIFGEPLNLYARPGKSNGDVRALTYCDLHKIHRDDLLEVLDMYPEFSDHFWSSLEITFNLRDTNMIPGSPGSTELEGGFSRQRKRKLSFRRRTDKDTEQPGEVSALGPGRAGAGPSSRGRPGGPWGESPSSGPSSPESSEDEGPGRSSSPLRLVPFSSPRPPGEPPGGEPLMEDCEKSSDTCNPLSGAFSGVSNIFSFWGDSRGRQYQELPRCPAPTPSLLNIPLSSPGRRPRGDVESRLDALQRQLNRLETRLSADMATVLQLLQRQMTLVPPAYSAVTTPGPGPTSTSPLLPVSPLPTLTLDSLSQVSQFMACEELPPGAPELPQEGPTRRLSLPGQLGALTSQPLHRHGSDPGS

Row | SMILES | hERG current change (%, negative = inhibition) at 10uM [%]
1 | COc1ccccc1/C=N/NC(=O)c1nnn(-c2nonc2N)c1-c1ccccc1 | 10.3
2 | CN(C)P(=O)(Nc1cccc2ccccc12)Nc1cccc2ccccc12 | 18
3 | Cc1ccc(S(=O)(=O)NC(C)C(=O)NCc2ccc(Cl)cc2)cc1 (stereo not drawn) | -27.5
4 | CC1(C)CC(=O)C2=C(C1)N(c1ccccc1)C(N)=C(C#N)C2c1ccsc1 (stereo not drawn) | -9.75
5 | Nc1nc2nccc(-c3ccco3)n2n1 | 21.1
6 | CC(C)c1ccc(NS(=O)(=O)c2ccc(N3C(=O)CCC3=O)cc2)cc1 | 1.76
7 | O=C(Cn1ccc([N+](=O)[O-])n1)N1CCCCC1 | -8.27
8 | COC(=O)c1ccc(Cn2nnc3c(=O)[nH]c(C4CCCN(S(=O)(=O)c5ccccc5Cl)C4)nc32)cc1 (stereo not drawn) | 10.9
9 | COc1cc(OC)cc(C(=O)NNC(=O)C2CCCC2)c1 | 6.14
10 | COC(=O)c1ccc(CSc2nc3c(c(=O)n2-c2ccc(C)cc2)SCC3)o1 | -5.12
11 | OCCC1CN(Cc2cccn2-c2ccccn2)CCN1C1CCCC1 (stereo not drawn) | -18.9
12 | COc1cccc(NC(=O)NC2CCN(Cc3nnnn3Cc3ccc4c(c3)OCO4)CC2)c1 | -23.3
13 | CN(C)Cc1c(O)ccc2cc(-c3nc4ccccc4n3C)c(=O)oc12 | 10.2
14 | CCOc1cc(NC(=O)Nc2ccc(F)cc2)c(OCC)cc1NC(=O)CC | 19.2
15 | CCOC(=O)c1cn(-c2ccc(F)c(F)c2F)c2c(F)c(F)c(F)cc2c1=O | 13.4
16 | Brc1ccc(-c2noc(COc3ccc4c(c3)CCC4)n2)o1 | 6.23
17 | CCCS(=O)(=O)N1CCN(C(=O)c2cccnc2)CC1 | 10.6
18 | N/C(=N\S(=O)(=O)c1ccc(Cl)cc1)N1CCOCC1 | 8.51
19 | Cc1cc(C)c2c(c1)/C(=N/NS(=O)(=O)c1ccccc1)CCC2 | 7.48
20 | CCCC(c1nnnn1Cc1ccc2c(c1)OCO2)N1CCC(C(N)=O)CC1 (stereo not drawn) | 18.2
21 | CCn1c(SCC(=O)N/N=C/C=C\c2ccccc2[N+](=O)[O-])nnc1-c1ccccc1 | -67
22 | O=C(CCC1CCCN(c2ncccn2)C1)NCc1ccccc1F (stereo not drawn) | -4.03

Row | SMILES | hERG current change (%, negative = inhibition) at 10uM [%]
23 | CSc1ccc(C2Nc3ccccc3-c3cc(C)nn32)cc1 (stereo not drawn) | -3.75
24 | COc1ccc(CC(=O)Nc2cccc(C)n2)cc1OC | 21.3
25 | O=C(/C=C/c1ccc(S(=O)(=O)N2CCOCC2)cc1)NCCc1ccc(C(F)(F)F)cc1 | 3.05
26 | COc1cc(OC)c2cc(C(=O)N[C@@H](Cc3ccccc3)C(=O)O)n(C)c2c1 | 8.47
27 | CCc1nn(-c2cc(Oc3cccc4ccccc34)nc(-c3ccccc3)n2)c(N)c1C#N | 23.3
28 | CCN(CC)CCN=Cc1c(O)n(CCc2ccccc2)c(=O)[nH]c1=O | -23.7
29 | O=C(O)C1(c2cccc(Cl)c2)CCC1 | 6.99
30 | O=C(O)c1cc(N=Nc2c(O)[nH]c3ccc([N+](=O)[O-])cc23)ccc1Cl | 10.2
31 | CC(C)(C)NC(=O)CN(C(=O)C(=O)Nc1ccc2c(c1)OCCO2)N1CCOCC1 | -8.72
32 | O=c1c2ccccc2ncn1/N=C/c1ccccc1 | 30.6
33 | CC(=O)Nc1ccc(NC(=O)CNC(=O)c2cccc(C)c2)cc1 | -4.54
34 | COc1ccc(C2N(c3ccc(Cl)cc3)C(=O)C3CCCN32)cc1 (stereo not drawn) | -8.51
35 | Cc1nnc(SCc2nnc(-c3ccccc3Br)o2)n1-c1ccccc1 | -14.6
36 | Fc1ccc(NC(=S)Nc2nccs2)cc1 | -16.1
37 | CCOc1nc(N=C(N)N)nc2c(C)cccc12 | 2
38 | COc1cc(C(=O)Nc2cccc(-c3nnc(-c4ccco4)o3)c2)ccc1OC(C)=O | -42.6
39 | CCOc1cc(O)c(-c2[nH]ncc2-c2nc(C)cs2)cc1CC | 3.54
40 | CCn1cc(Cl)c(C(=O)Nc2ccccc2C(N)=O)n1 | -7.91
41 | Cc1nc2ccc(NC(=O)c3ccc([N+](=O)[O-])cc3)cc2s1 | 0.891
42 | CC(=O)N1c2ccc(S(=O)(=O)NCC3CCC(C(=O)NC4CCCCC4)CC3)cc2CC1C (stereo not drawn) | 12.5
43 | Cc1ccc(C)c2c(N)c3c(nc12)CCCCC3.O=C(O)c1cncc(Br)c1 | -88.4
44 | CCc1cc(-c2nc(N)ncc2-c2ccc(Br)cc2)c(O)cc1OC | 10

Row | SMILES | hERG current change (%, negative = inhibition) at 10uM [%]
45 | O=C(/C=C/c1cn(-c2ccccc2)nc1-c1cccnc1)c1ccco1 | -12
46 | O=C(CN1CCN(S(=O)(=O)c2ccc(Br)cc2)CC1)Nc1ccc2c(c1)OCO2 | -62.4
47 | COc1ccc(CC(=O)NCc2ccccn2)cc1OC | 9.93
48 | Cc1ccc(-n2ncc3c(NCc4ccco4)ncnc32)cc1C | -1.7
49 | CCOc1ccccc1C(=O)N/N=C/c1c[nH]c2ccccc12 | 26.3
50 | CN(C(=O)CSc1nnc(-c2ccc(Cl)cc2)n1CC1CCCO1)C1CCS(=O)(=O)C1 (stereo not drawn) | -0.671
51 | C/C(=N\Nc1ncc(Cl)cc1Cl)c1ccc2c(c1)OCO2 | 9.57
52 | CCn1c(SCC(=O)NCC(=O)Nc2ccc(F)cc2)nnc1-c1ccncc1 | 0.83
53 | CC(C)N(C(=O)NC(=O)NCC1CCCO1)S(C)(=O)=O (stereo not drawn) | 10.5
54 | CC/C(=N\NC(=O)c1ccccc1Cl)c1ccc(Br)s1 | 4.04
55 | CCCCSc1nc(NCc2ccco2)c2c3c(sc2n1)COC(C)(C)C3 | -8.98
56 | CN(C(=O)Cc1ccc(Cl)c(Cl)c1)C(CN1CCCC1)c1cccc(OCC(=O)O)c1.Cl (stereo not drawn) | 7.11
57 | Cn1c(=O)c2c(nc(SCc3cccnc3)n2Cc2ccccc2)n(C)c1=O | -17.6
58 | COc1ccccc1CC(=O)N1CCN(S(=O)(=O)c2ccccc2)CC1 | -7.82
59 | CN1C(=O)C(O)(C2COC(C)(C)CC2=O)c2cc(Br)ccc21 (stereo not drawn) | -21
60 | Cc1cc(C(=O)NCc2cc(C)n(C)n2)sc1-c1ccccc1 | -13.7
61 | CCc1nnc(SCC(=O)Nc2ccc(N3CCOCC3)cc2)n1C | 13.5
62 | COc1cccc(NC(=O)CC2C(=O)NCCN2C(=S)Nc2ccc(F)cc2)c1 (stereo not drawn) | 15.2
63 | Cc1cccc(C)c1NC(=O)NC1(C(=O)NCC2CCCO2)CCCCC1 (stereo not drawn) | 11.2
64 | CCOC(=O)N1CCN(c2nc(=S)n(-c3ccccc3)c(C)c2C(C)=O)CC1 | -2.56
65 | O=C1CCCCCN1CSc1nc2ccccc2s1 | -5.65
66 | CCOc1ccccc1CN1CCN(C2CCSCC2)CC1CCO (stereo not drawn) | -25.9

Row | SMILES | hERG current change (%, negative = inhibition) at 10uM [%]
67 | CCCCN(C(=O)C1CCC1)c1c(N)n(CCC)c(=O)[nH]c1=O | -1.71
68 | CCOc1ccccc1N(CC(=O)Nc1ccc(OC)cc1)S(=O)(=O)c1ccccc1 | 6.3
69 | Cc1nn(-c2ccccc2)c(N2CCCC2)c1/C=N/Nc1ccc(S(N)(=O)=O)cc1[N+](=O)[O-] | 1.15
70 | CCOC(=O)N1CCC(N2CCCC(C(=O)c3cccc(OC(C)C)c3)C2)CC1 (stereo not drawn) | -76.8
71 | CCOC(=O)c1csc(NC(=O)CSc2nnnn2CC)n1 | -2.37
72 | O=C(Nc1ccccc1Cl)c1ccc(-n2cccn2)c([N+](=O)[O-])c1 | 9.46
73 | O=c1[nH]c2ccccc2nc1-c1ccc(Cl)cc1 | 19.8
74 | COc1ccc(NC(=O)C2CC(=O)N/C(=N/NC(=O)c3ccc(Cl)cc3)S2)cc1 (stereo not drawn) | -5.77
75 | Cn1c(SCC(=O)C(C)(C)C)nnc1-c1ccccn1 | -2.93
76 | COc1ccc(-c2nnc(NC(=O)c3ccc(S(=O)(=O)N4CCCc5ccccc54)cc3)o2)cc1 | 0.175
77 | CCc1ccc(-c2nc(CN3CCC(C(=O)NCCN(CC)c4ccccc4)CC3)c(C)o2)cc1 | -69.5
78 | Cc1ccc(C(=O)N2CCSCC2)cc1 | -11.3
79 | Cc1noc(C)c1C(=O)OC(C)C(=O)Nc1ccc(C(N)=O)cc1 (stereo not drawn) | -10.5
80 | O=[N+]([O-])CC(=Nc1ccc(Cl)cc1)N/N=C\c1oc(O)c2ccccc12 | 5.58
81 | COc1ccc(-c2cc(C(=O)Nc3ccc(S(=O)(=O)Nc4onc(C)c4C)cc3)c3ccccc3n2)cc1 | 16
82 | Cc1cc(N2CCN(C)CC2)nc2ccc(NC(=S)N3CCN(c4cccc(Cl)c4)CC3)cc12 | 15
83 | Cc1ccc2[nH]c(C(=O)N3CCN(C(c4ccccc4)c4ccccc4)CC3)cc2c1 | 19.7
84 | Cc1cccc(NC(=O)CN2C(=O)NC(C)(c3ccc4ccccc4c3)C2=O)n1 (stereo not drawn) | -45
85 | CN(C1CCCC1)C1CCN(C(=S)Nc2cc(F)cc(F)c2)CC1 | -42
86 | Nc1nc(Nc2cccc(Cl)c2)nc(NCc2ccco2)c1[N+](=O)[O-] | 14.2
87 | Cc1ccc(S(=O)(=O)Nc2ccc(-c3nnc(SCc4ccccc4Cl)o3)cc2)cc1 | 12.3
